The values below come from PMC4336329 (PLoS ONE, 2015).

The whole screen tested about 310,000 compounds, of which about 14,000 (4.5%) showed an effect of 50% or more. Effects have a minus sign here. The list shows a part of the results.
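Further: peak tail current of the secondary pulse compared with the same well before compound.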

This assay deals with human ether-à-go-go-related gene (hERG) potassium channel (human, UniProt Q12809). Nature of the assay: primary screen, population patch clamp on CHO cells stably expressing hERG.
Chain of human ether-à-go-go-related gene (hERG) potassium channel (Q12809 whole entry, looked up): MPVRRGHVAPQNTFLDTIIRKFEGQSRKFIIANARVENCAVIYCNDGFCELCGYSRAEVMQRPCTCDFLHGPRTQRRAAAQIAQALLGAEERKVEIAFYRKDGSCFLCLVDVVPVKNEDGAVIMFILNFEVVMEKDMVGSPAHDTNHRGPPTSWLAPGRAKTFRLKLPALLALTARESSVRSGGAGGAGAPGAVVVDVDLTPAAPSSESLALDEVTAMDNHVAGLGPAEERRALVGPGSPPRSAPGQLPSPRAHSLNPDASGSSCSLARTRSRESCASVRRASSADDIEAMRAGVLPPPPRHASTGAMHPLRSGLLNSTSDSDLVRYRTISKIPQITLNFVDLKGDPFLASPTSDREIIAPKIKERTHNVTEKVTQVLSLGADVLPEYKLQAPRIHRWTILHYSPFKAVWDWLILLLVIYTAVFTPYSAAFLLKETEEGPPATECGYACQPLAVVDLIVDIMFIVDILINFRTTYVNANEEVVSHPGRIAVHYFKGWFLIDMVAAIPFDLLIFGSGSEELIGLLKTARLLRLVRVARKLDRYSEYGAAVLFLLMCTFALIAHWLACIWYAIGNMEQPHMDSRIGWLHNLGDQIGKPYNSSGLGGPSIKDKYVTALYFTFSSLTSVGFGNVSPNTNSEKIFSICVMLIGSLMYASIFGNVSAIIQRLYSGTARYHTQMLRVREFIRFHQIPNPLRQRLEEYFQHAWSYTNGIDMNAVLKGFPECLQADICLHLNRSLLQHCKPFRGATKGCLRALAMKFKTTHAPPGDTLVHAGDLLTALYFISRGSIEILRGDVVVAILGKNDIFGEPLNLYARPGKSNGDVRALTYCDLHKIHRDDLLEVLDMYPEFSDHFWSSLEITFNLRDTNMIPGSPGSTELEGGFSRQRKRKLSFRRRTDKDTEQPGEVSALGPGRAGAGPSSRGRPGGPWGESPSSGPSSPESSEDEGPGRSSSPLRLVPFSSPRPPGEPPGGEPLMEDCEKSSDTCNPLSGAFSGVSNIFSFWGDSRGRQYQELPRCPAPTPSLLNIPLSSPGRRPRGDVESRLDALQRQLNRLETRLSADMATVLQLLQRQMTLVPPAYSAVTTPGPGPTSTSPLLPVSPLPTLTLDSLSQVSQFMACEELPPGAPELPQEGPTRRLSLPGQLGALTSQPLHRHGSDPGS
For `O=C(Oc1ccc(C(=S)N2CCC(O)CC2)cc1)c1ccc(Cl)cc1`, the “hERG current change (%, negative = inhibition) at 10uM” value is reported as -11.8%.

Consider `COCCn1c(SCC(=O)N2CCC(C)CC2)nc2ccccc2c1=O`, for which the “hERG current change (%, negative = inhibition) at 10uM” value is given as -62.8%.

On to `CC1=C(C(=O)O)N2C(=O)C(NC(=O)c3nn(C)c(C)c3Cl)C2SC1` (centres unmarked), for which the “hERG current change (%, negative = inhibition) at 10uM” value came to 10.9%.

On to `O=C(NCC1(c2ccccc2)CCCC1)c1ccccc1`, for which the “hERG current change (%, negative = inhibition) at 10uM” value turned out to be 2.4%.

Consider `CCOC(=O)CC(=O)N/N=C/c1c(N)n(C)c(=O)n(C)c1=O`, for which the “hERG current change (%, negative = inhibition) at 10uM” value was -32.3%.

Turning to `COc1ccc(S(=O)(=O)Nc2cccc(-c3ccc(N4CCCCCC4)nn3)c2)c(OC)c1`, the “hERG current change (%, negative = inhibition) at 10uM” value is 18.7%.

`Cc1ccc(C(=O)OCC(=O)Nc2ncc(C(F)(F)F)cc2Cl)cc1NC(=O)c1ccco1`: the “hERG current change (%, negative = inhibition) at 10uM” value was -50.1%.

Consider `CCOC(=O)CCCCC(=O)NC(CO)C(=O)NC` (centres unmarked), for which the “hERG current change (%, negative = inhibition) at 10uM” value was 4.65%.

Turning to `CN(C)C(CNC(=O)c1ccc(C(=O)c2ccccc2)cc1)c1ccccc1` (centres unmarked), the “hERG current change (%, negative = inhibition) at 10uM” value is listed as -25.8%.

For the compound `CCN1CCN(C(=O)Cc2coc3cc(C)cc(C)c23)CC1`, the “hERG current change (%, negative = inhibition) at 10uM” value is given as -18%.

For `O=C(COC(=O)CCCSc1nc2ccccc2[nH]1)Nc1ccc(Cl)cc1`, the “hERG current change (%, negative = inhibition) at 10uM” value was -23.5%.

In the case of `O=C(/C=C/c1c[nH]c2ccccc12)c1c(O)n(CCc2ccccc2)c(=O)[nH]c1=O`, the “hERG current change (%, negative = inhibition) at 10uM” value was 7.22%.

As for `CCN(CC(=O)Nc1ccc(OC)cc1)C(=O)COc1cccc2c1OC(C)(C)C2`, the “hERG current change (%, negative = inhibition) at 10uM” value was -14.1%.

`COc1cc(NC(=O)CSc2nc3ccccc3cc2C)c(C(=O)O)cc1OC`: the “hERG current change (%, negative = inhibition) at 10uM” value turned out to be 8.57%.

In the case of `CCCc1cc(C(=O)NCC(C)C)no1`, the “hERG current change (%, negative = inhibition) at 10uM” value is 0.36%.

Regarding `COc1ccc(OC)c(-c2nn(-c3ccccc3)cc2C(=O)NCC2CCCO2)c1` (centres unmarked), the “hERG current change (%, negative = inhibition) at 10uM” value amounted to 2.13%.

For `O=CN1c2ccccc2CSc2ccccc21`, the “hERG current change (%, negative = inhibition) at 10uM” value amounted to 25.1%.

Regarding `COc1ccc(CCNC(=O)C2CCCN(C(=O)N(C)C)C2)c(OC)c1` (centres unmarked), the “hERG current change (%, negative = inhibition) at 10uM” value came to 8.16%.

On to `Cn1c(SCC(=O)c2ccc3c(c2)OCO3)nnc1-c1ccccn1`, for which the “hERG current change (%, negative = inhibition) at 10uM” value was 13.2%.

Consider `Cc1cc(N2CCN(C(=O)c3ccco3)CC2)n2ncc(-c3ccccc3)c2n1`, for which the “hERG current change (%, negative = inhibition) at 10uM” value was -50.5%.

With `Cn1cnnc1SCC(=O)Nc1nc(-c2ccc(F)cc2)cs1`, the “hERG current change (%, negative = inhibition) at 10uM” value was 13%.

`Cc1cccc(NC(=O)c2ccc3c(c2)CCN3S(C)(=O)=O)c1`: the “hERG current change (%, negative = inhibition) at 10uM” value was 8.76%.

Regarding `COc1ccc(CNC(=O)CN2C(=O)C(c3ccccc3)Oc3cccnc32)cc1` (centres unmarked), the “hERG current change (%, negative = inhibition) at 10uM” value is on record as -11%.

Consider `CCN(CC)C(=O)Cn1c(=O)n(-c2ccccc2)c(=O)c2sccc21`, for which the “hERG current change (%, negative = inhibition) at 10uM” value is listed as 9.94%.

Turning to `CCc1cc2cc(C(=O)Nc3ccccc3F)sc2s1`, the “hERG current change (%, negative = inhibition) at 10uM” value is -0.577%.

In the case of `CCc1nn(CCCC(=O)N2CCc3ccccc3C2)c(=O)c2cc3occc3n12`, the “hERG current change (%, negative = inhibition) at 10uM” value was -29%.

Regarding `CCN(CC)CCCNC(=O)Cn1cc2c(n1)CCC(C)C2` (centres unmarked), the “hERG current change (%, negative = inhibition) at 10uM” value was 2.88%.

With `Cc1ccc(-n2nnc(-c3cccnc3)n2)cc1`, the “hERG current change (%, negative = inhibition) at 10uM” value amounted to 6.05%.

As to `CC1=C(C(=O)OC(C)C)C(c2cccs2)N2C(=O)CCSC2=N1` (centres unmarked), the “hERG current change (%, negative = inhibition) at 10uM” value is on record as -11.5%.

For the compound `O=C(NCCN1CCCCC1)c1ccc(F)cc1Cl`, the “hERG current change (%, negative = inhibition) at 10uM” value was 9.65%.

For the compound `COc1ccc(N2CCN(C(=O)COC(=O)Cc3ccc(F)cc3)CC2)cc1`, the “hERG current change (%, negative = inhibition) at 10uM” value is -20%.

On to `OC(c1ccccn1)C1CCN(Cc2nc(C(c3ccccc3)c3ccccc3)no2)CC1` (centres unmarked), for which the “hERG current change (%, negative = inhibition) at 10uM” value was -9.22%.

As for `CCOC(=O)C(C(=O)OCC)=C1OC(=O)c2ccccc21`, the “hERG current change (%, negative = inhibition) at 10uM” value is given as 3.02%.

As to `COC(=O)c1cc(Br)ccc1NC(=O)Nc1ccc(C)cc1`, the “hERG current change (%, negative = inhibition) at 10uM” value came out at 7.58%.

For the compound `OCCC1CN(Cc2cc3ccccc3o2)CCN1Cc1ccc(F)cc1` (centres unmarked), the “hERG current change (%, negative = inhibition) at 10uM” value is -11.8%.

On to `CCOC(=O)Nc1sc(=S)n(C)c1C`, for which the “hERG current change (%, negative = inhibition) at 10uM” value is on record as -1.04%.

For the compound `O=C(COc1ccc(S(=O)(=O)N2CCOCC2)cc1)N1CCOCC1`, the “hERG current change (%, negative = inhibition) at 10uM” value is 10.6%.

As to `CCc1cc2c(=O)c(-c3cscn3)coc2cc1O`, the “hERG current change (%, negative = inhibition) at 10uM” value is 5.58%.

In the case of `O=C(CCS(=O)(=O)c1ccccc1)NCc1ccccc1`, the “hERG current change (%, negative = inhibition) at 10uM” value is -4.29%.

Consider `c1ccc(CNc2cnccn2)cc1`, for which the “hERG current change (%, negative = inhibition) at 10uM” value is listed as -0.449%.

`O=C(CSc1nc(-c2cccs2)cc(C(F)(F)F)n1)NCc1ccccc1`: the “hERG current change (%, negative = inhibition) at 10uM” value was -22.5%.

For the compound `COc1ccc(/C=N/NC(=O)c2cnccn2)cc1O`, the “hERG current change (%, negative = inhibition) at 10uM” value is -0.205%.

Regarding `CCC1CCCCN1S(=O)(=O)c1ccc2c(c1)CCN2C(=O)C1CCC1` (centres unmarked), the “hERG current change (%, negative = inhibition) at 10uM” value is recorded as -6.68%.

Turning to `COCCNCC(=O)Nc1ccc(OC(F)(F)F)cc1.Cl`, the “hERG current change (%, negative = inhibition) at 10uM” value is recorded as -33.9%.

For the compound `CCN(CC(=O)NCc1ccc(F)cc1)Cc1cc(=O)n2ccsc2n1`, the “hERG current change (%, negative = inhibition) at 10uM” value is -6.04%.

With `CC(NC(=O)c1ccccc1Br)c1nnc(SCC(=O)NC2=NCCS2)n1C` (centres unmarked), the “hERG current change (%, negative = inhibition) at 10uM” value came to 12.6%.

On to `CCCCCCn1c(N)c(C#N)c2ccc([N+](=O)[O-])cc2c1=O`, for which the “hERG current change (%, negative = inhibition) at 10uM” value was found to be 17.9%.

Turning to `COc1cccc(/C=C2\CCCCC2=O)c1`, the “hERG current change (%, negative = inhibition) at 10uM” value is 9.62%.

For the compound `O=C(CN1C(=O)c2ccccc2C1=O)Nc1ccccc1C(=O)NC1CCCCCC1`, the “hERG current change (%, negative = inhibition) at 10uM” value is given as -4.23%.

Consider `O=C(Nc1ccc(N2CCCC2)cc1)C(c1ccccc1)c1ccccc1`, for which the “hERG current change (%, negative = inhibition) at 10uM” value turned out to be 11.2%.

As for `CC(=O)Nc1ccc(S(=O)(=O)N(C)S(=O)(=O)c2ccc(F)cc2)cc1`, the “hERG current change (%, negative = inhibition) at 10uM” value is -63.3%.

As to `COc1ccc(OC)c(S(=O)(=O)N2C(C)CCCC2C)c1` (centres unmarked), the “hERG current change (%, negative = inhibition) at 10uM” value was -7.42%.

As for `COc1cccc(NC(=O)CN(C)C(=O)Cn2c(=O)oc3ccccc32)c1`, the “hERG current change (%, negative = inhibition) at 10uM” value turned out to be 9.04%.

On to `CCOC(=O)C1C(=O)NC(c2ccccc2)=NC1c1ccc(O)c(OC)c1` (centres unmarked), for which the “hERG current change (%, negative = inhibition) at 10uM” value came to 9.11%.

With `Cc1ccc(C)c(NC(=O)c2ncn[nH]2)c1`, the “hERG current change (%, negative = inhibition) at 10uM” value is on record as 2.63%.

On to `Cc1ccc2cc(C#N)c(N3CCCC3)nc2c1C`, for which the “hERG current change (%, negative = inhibition) at 10uM” value amounted to 7.87%.

`O=C(C1CCC(=O)N1Cc1ccc(F)cc1)N1CCC2(CC1)OCCO2` (centres unmarked): the “hERG current change (%, negative = inhibition) at 10uM” value is listed as 13.8%.

As to `CCC(C)NC(=O)C(=O)NCC1CCCN1CC` (centres unmarked), the “hERG current change (%, negative = inhibition) at 10uM” value is given as 6.68%.

`O=[N+]([O-])c1ccccc1N/N=C/c1cc2ccccc2nc1Cl`: the “hERG current change (%, negative = inhibition) at 10uM” value stood at 14.8%.
